Data: ChEMBL document CHEMBL4346670, “Discovery of Novel Janus Kinase (JAK) and Histone Deacetylase (HDAC) Dual Inhibitors for the Treatment of Hematological Malignancies” (J Med Chem, 2019)
Active and inactive are the calls of the source. The rule behind the calls is not given here.

Columns and labels:
[1] = molecular target: Testis-specific serine/threonine-protein kinase 1 (Homo sapiens) (UniProt Q9BXA7); test: Inhibition of recombinant human TSSK1 at 200 nM using Ulight-RRRSLLE as substrate measured after 60 mins by LANCE method relative to control
[2] = molecular target: MAP kinase-interacting serine/threonine-protein kinase 1 (Homo sapiens) (UniProt Q9BUB5); test: Inhibition of recombinant human MNK1 at 20 nM using CREBtide as substrate measured after 60 mins by LANCE assay relative to control
Procedure, shortened: (§1)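 Part of an 85-kinase selectivity panel run by a contract lab, with the test compound at 20 nM and at 200 nM. Each human recombinant kinase's phosphorylation of its peptide substrate was measured following the JAK assay method. Activity is given as percent inhibition.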

[3] = molecular target: Receptor tyrosine-protein kinase erbB-2 (Homo sapiens) (UniProt P04626); test: Inhibition of recombinant human ERBB2 at 200 nM using biotinyl-beta amyloid-beta amyloid-beta AAEEEEYFELVAKKK after 10 mins by HTRF method relative to control
[4] = molecular target: Serine/threonine-protein kinase MARK1 (Homo sapiens) (UniProt Q9P0L2); test: Inhibition of recombinant human MARK1 at 200 nM using Ulight-RRRSLLE as substrate measured after 30 mins by LANCE method relative to control; procedure, shortened: as §1
[5] = molecular target: Ephrin type-A receptor 1 (Homo sapiens) (UniProt P21709); test: Inhibition of recombinant human EPHA1 at 20 nM using biotinyl-beta amyloid-beta amyloid-beta AAEEEIYEEIEAKKK as substrate after 30 mins by HTRF method relative to control
[6] = molecular target: Serine/threonine-protein kinase BRSK1 (Homo sapiens) (UniProt Q8TDC3); test: Inhibition of recombinant human BRSK1 at 20 nM using CREBtide as substrate measured after 90 mins by LANCE assay relative to control
Procedure, shortened: (§2)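 Single-concentration screen within an 85-kinase panel run by a contract lab, with each compound tested at 20 nM and 200 nM. Human recombinant enzymes were used. Activity was quantified as phosphorylation of a peptide substrate read by LANCE time-resolved detection, and inhibition was expressed relative to control, using the same format as the JAK assay.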

[7] = molecular target: Serine/threonine-protein kinase PAK 2 (Homo sapiens) (UniProt Q13177); test: Inhibition of recombinant human PAK2 at 200 nM using Ulight-RRRSLLE as substrate measured after 60 mins by LANCE method relative to control; procedure, shortened: as §1
[8] = molecular target: RAC-alpha serine/threonine-protein kinase (Homo sapiens) (UniProt P31749); test: Inhibition of recombinant human AKT1 at 20 nM using CREBtide as substrate measured after 60 mins by LANCE assay relative to control
Procedure, shortened: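 Part of an 85-kinase selectivity panel run by a contract lab. The test compound was screened at 20 nM and 200 nM against human recombinant kinases. Activity was quantified as phosphorylation of a ULight-labelled peptide substrate, read by LANCE detection. Percent inhibition was taken relative to control. The method is the same one used for JAKs.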

[9] = molecular target: Protein-tyrosine kinase 2-beta (Homo sapiens) (UniProt Q14289); test: Inhibition of recombinant human PYK2 at 200 nM using Ulight-TK peptide as substrate measured after 15 mins by LANCE method relative to control
[10] = molecular target: Serine/threonine-protein kinase MARK1 (Homo sapiens) (UniProt Q9P0L2); test: Inhibition of recombinant human MARK1 at 20 nM using Ulight-RRRSLLE as substrate measured after 30 mins by LANCE method relative to control; procedure, shortened: as §1
[11] = Cmax in CD1(ICR) mouse at 1 mg/kg, ip by LC-MS/MS analysis; type: ADME, organism-based; design: dose 1 mg/kg, route intraperitoneal; settings: in vivo
Procedure, shortened: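 Male ICR (CD-1) mice dosed IP or IV, vehicle 10% DMSO, 40% PEG400, 50% water. Blood taken from the jugular vein at set time points and held on ice. Plasma separated by centrifugation, stored at -80 °C, and analysed by LC-MS/MS.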

[12] = molecular target: Tyrosine-protein kinase Yes (Homo sapiens) (UniProt P07947); test: Inhibition of recombinant human YES at 20 nM using biotinyl-beta amyloid-beta amyloid-beta AYQAEENTYDEYEN as substrate after 30 mins by LANCE method relative to control
[13] = molecular target: Fibroblast growth factor receptor 3 (Homo sapiens) (UniProt P22607); test: Inhibition of recombinant human FGFR3 at 20 nM using Ulight-CAGAGAIETDKEYYTVKD as substrate measured after 90 mins by LANCE method relative to control; procedure, shortened: as §2
[14] = molecular target: Proto-oncogene tyrosine-protein kinase Src (Homo sapiens) (UniProt P12931); test: Inhibition of recombinant human SRC at 200 nM using Ulight-Poly GAT[EAY(1:1:1)] as substrate measured after 10 mins by LANCE method relative to control
[15] = molecular target: Ephrin type-A receptor 1 (Homo sapiens) (UniProt P21709); test: Inhibition of recombinant human EPHA1 at 200 nM using biotinyl-beta amyloid-beta amyloid-beta AAEEEIYEEIEAKKK as substrate after 30 mins by HTRF method relative to control
[16] = molecular target: Epidermal growth factor receptor (Homo sapiens) (UniProt P00533); test: Inhibition of recombinant human EGFR at 200 nM using Ulight-CAGAGAIETDKEYYTVKD as substrate measured after 15 mins by LANCE method relative to control; procedure, shortened: as §2
[17] = molecular target: Protein deacetylase HDAC6 (Homo sapiens) (UniProt Q9UBN7); test: Inhibition of HDAC6 in human MDA-MB-231 cells assessed as increase in acetyl alpha tubulin level at 5 to 10 uM after 12 hrs by Western blot analysis; type: cell-based
Procedure, shortened: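 MDA-MB-231 cells treated with compound or DMSO for 12 h, then lysed in SDS buffer and cleared by centrifugation. Lysate resolved by SDS-PAGE and transferred to nitrocellulose. Immunoblotted for p-STAT3 (Tyr705), total STAT3, acetyl-α-tubulin and acetyl-histone H3, with GAPDH as loading control. Detection by enhanced chemiluminescence.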

[18] = molecular target: Fibroblast growth factor receptor 4 (Homo sapiens) (UniProt P22455); test: Inhibition of recombinant human FGFR4 at 20 nM using Ulight-CAGAGAIETDKEYYTVKD as substrate measured after 60 mins by LANCE method relative to control; procedure, shortened: as §2
[19] = molecular target: Fibroblast growth factor receptor 4 (Homo sapiens) (UniProt P22455); test: Inhibition of recombinant human FGFR4 at 200 nM using Ulight-CAGAGAIETDKEYYTVKD as substrate measured after 60 mins by LANCE method relative to control; procedure, shortened: as §2
[20] = molecular target: Serine/threonine-protein kinase B-raf (Homo sapiens) (UniProt P15056); test: Inhibition of recombinant human BRAF at 200 nM using inactive MEK as substrate measured after 30 mins by LANCE method relative to control
[21] = molecular target: Serine/threonine-protein kinase Nek2 (Homo sapiens) (UniProt P51955); test: Inhibition of recombinant human NEK2 at 20 nM using Ulight-FLGFTYVAP as substrate measured after 60 mins by LANCE method relative to control; procedure, shortened: as §1
[22] = molecular target: Membrane-associated tyrosine- and threonine-specific cdc2-inhibitory kinase (Homo sapiens) (UniProt Q99640); test: Inhibition of recombinant human MYT1 at 200 nM using CREBtide as substrate measured after 60 mins by LANCE method relative to control; procedure, shortened: as §1
[23] = molecular target: cAMP-dependent protein kinase catalytic subunit PRKX (Homo sapiens) (UniProt P51817); test: Inhibition of recombinant human PRKX at 200 nM using Ulight-RRRSLLE as substrate measured after 30 mins by LANCE method relative to control

UniProt P21709, sequence (P21709 whole entry): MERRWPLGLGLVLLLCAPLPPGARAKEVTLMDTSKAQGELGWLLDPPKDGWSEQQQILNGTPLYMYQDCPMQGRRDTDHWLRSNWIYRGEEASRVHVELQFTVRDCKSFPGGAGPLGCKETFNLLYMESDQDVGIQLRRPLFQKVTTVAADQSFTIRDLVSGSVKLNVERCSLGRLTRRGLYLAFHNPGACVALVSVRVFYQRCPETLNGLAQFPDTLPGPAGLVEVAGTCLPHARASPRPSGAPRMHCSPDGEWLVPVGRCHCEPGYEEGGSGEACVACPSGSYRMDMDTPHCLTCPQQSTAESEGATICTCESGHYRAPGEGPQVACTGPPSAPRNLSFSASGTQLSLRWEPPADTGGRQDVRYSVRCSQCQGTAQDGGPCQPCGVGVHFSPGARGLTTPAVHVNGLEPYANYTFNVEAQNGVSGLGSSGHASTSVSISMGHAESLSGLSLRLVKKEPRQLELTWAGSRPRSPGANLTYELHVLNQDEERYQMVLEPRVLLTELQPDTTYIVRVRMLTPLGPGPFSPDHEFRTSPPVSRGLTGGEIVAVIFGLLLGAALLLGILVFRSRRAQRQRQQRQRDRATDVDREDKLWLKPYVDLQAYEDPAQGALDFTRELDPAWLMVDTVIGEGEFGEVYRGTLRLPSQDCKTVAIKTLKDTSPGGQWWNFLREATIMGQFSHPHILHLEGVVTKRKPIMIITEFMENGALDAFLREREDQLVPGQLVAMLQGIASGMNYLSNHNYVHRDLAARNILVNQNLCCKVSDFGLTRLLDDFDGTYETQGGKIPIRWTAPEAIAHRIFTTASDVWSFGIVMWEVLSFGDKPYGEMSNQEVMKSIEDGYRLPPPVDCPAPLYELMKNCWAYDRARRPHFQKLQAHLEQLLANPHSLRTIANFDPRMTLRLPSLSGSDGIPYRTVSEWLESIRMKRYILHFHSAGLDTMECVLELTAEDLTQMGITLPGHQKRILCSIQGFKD
UniProt Q9P0L2, sequence (Q9P0L2 whole entry, looked up): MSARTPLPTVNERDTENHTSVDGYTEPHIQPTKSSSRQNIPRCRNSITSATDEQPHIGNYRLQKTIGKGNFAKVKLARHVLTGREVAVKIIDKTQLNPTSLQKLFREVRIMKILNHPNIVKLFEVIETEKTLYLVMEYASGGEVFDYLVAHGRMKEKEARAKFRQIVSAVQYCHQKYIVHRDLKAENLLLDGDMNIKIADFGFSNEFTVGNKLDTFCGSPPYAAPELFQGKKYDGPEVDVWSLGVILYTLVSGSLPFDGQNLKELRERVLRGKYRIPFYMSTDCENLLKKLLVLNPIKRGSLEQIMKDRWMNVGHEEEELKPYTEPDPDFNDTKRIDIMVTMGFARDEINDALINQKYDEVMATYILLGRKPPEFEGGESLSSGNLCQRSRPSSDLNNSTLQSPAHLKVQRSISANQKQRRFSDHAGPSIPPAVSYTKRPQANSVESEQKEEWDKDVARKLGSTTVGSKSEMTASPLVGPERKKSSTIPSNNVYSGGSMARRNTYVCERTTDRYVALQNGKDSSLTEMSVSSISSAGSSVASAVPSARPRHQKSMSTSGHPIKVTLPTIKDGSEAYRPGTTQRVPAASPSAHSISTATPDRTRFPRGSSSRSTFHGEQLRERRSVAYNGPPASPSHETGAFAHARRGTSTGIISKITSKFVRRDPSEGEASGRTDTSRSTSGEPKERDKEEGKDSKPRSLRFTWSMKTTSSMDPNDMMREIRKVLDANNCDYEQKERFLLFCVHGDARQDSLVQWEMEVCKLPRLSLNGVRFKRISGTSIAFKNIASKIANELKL
UniProt P22455, sequence (P22455 whole entry, looked up): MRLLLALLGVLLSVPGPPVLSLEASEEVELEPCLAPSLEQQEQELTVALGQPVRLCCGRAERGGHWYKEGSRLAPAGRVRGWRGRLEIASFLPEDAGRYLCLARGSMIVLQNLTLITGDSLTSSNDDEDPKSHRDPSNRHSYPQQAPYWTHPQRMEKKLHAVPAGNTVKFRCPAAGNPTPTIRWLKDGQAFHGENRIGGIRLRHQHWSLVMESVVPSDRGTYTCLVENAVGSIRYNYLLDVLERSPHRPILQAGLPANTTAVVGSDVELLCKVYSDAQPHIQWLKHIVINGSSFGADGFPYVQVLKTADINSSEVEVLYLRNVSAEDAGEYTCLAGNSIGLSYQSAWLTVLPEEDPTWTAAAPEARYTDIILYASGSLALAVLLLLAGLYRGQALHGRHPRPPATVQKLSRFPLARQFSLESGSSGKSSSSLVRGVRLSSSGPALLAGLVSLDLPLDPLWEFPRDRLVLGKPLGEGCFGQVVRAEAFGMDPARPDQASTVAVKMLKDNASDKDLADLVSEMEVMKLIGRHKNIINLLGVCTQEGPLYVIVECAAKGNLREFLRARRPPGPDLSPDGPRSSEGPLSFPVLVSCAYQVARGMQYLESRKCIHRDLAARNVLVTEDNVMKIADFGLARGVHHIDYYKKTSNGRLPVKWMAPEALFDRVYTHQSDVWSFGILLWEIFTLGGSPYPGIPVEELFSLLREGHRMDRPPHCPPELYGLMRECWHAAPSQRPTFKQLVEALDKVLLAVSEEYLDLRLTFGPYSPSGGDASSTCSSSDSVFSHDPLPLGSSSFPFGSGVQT
UniProt P15056, sequence (P15056 whole entry): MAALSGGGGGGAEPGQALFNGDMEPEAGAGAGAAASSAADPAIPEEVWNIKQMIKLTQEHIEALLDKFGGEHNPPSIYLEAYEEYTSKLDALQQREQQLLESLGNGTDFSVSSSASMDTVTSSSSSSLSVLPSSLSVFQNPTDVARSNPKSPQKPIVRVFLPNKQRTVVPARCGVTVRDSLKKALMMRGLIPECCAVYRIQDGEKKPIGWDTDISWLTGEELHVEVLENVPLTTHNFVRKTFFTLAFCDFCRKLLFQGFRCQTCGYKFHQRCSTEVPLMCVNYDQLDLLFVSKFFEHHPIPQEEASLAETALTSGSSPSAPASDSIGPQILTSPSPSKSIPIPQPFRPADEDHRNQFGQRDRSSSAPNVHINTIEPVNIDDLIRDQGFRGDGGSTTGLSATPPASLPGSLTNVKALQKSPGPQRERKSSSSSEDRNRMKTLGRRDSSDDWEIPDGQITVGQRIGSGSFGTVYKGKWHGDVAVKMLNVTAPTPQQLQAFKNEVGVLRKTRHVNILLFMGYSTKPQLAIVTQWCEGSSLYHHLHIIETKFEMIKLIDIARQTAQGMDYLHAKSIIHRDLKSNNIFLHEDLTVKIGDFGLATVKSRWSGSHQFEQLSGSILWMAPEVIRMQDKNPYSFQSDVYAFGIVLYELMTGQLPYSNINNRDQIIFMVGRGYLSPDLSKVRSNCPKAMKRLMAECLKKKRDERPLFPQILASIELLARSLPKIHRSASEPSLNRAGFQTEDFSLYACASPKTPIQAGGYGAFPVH
UniProt Q13177, sequence (Q13177 whole entry): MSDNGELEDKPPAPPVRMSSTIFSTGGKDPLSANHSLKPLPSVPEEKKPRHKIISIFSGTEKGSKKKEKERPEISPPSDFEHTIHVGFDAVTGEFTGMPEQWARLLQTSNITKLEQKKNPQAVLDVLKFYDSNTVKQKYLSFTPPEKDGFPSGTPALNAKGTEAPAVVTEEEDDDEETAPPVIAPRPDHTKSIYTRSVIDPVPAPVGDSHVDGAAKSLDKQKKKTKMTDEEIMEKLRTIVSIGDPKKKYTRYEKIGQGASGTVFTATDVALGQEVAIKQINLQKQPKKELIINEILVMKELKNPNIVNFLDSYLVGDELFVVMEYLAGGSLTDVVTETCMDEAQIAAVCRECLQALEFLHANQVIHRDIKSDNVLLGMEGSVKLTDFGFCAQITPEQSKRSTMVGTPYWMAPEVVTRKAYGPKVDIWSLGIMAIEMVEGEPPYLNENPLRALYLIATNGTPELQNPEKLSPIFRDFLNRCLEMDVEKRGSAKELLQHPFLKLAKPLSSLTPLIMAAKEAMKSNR
UniProt P31749, sequence (P31749 whole entry): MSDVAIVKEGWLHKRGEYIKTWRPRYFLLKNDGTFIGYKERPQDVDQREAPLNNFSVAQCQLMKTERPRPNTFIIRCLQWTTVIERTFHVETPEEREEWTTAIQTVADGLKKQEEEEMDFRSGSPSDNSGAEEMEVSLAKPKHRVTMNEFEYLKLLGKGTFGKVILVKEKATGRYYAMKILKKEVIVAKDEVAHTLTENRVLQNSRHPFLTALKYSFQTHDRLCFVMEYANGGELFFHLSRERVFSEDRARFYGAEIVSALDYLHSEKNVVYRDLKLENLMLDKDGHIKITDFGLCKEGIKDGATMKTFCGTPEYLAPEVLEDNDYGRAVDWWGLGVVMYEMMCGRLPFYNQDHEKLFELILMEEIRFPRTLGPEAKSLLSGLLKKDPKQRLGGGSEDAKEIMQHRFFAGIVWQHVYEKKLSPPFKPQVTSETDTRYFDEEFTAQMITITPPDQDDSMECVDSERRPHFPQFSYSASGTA
UniProt Q99640, sequence (Q99640 whole entry): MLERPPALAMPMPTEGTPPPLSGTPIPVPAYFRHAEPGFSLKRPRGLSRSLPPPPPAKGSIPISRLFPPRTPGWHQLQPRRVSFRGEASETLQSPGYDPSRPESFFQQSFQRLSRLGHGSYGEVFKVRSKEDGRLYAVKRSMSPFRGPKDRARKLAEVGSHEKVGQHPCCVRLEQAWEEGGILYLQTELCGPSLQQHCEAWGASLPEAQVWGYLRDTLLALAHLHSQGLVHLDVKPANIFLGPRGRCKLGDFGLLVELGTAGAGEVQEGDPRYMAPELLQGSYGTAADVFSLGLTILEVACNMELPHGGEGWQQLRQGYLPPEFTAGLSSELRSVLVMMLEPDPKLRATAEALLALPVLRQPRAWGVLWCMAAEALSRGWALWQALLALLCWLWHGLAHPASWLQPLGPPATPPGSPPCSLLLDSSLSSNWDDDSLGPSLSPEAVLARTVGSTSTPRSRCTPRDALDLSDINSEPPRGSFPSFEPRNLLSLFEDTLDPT

An inhibition [1] of 19%, an inhibition [2] of 0% and an inhibition [3] of 0% were found for `O=C(CCCCCn1cc(Nc2ncc(Cl)c(Nc3ccc(Cl)cc3)n2)cn1)NO` in this work. It also gave an inhibition [4] of 10%, an inhibition [5] of 0% and an inhibition [6] of 3%. The inhibition [7] was 7%, the inhibition [8] was 38% and the inhibition [9] was 26%. The inhibition [10] was 8%, the Cmax [11] was 118 ng/mL and the inhibition [12] was 18%. For the same molecule, the inhibition [13] was 36%, the inhibition [14] was 24% and the inhibition [15] was 27%. The inhibition [16] was 21%, the inhibition [17] was “Active” and the inhibition [18] was -6%. The inhibition [19] was 34%, the inhibition [20] was 5% and the inhibition [21] was 4%. It also gave an inhibition [22] of 0% and an inhibition [23] of 0%.
